# Results published in the supplement of paper PMC8728848.
# The list shows a part of the results.
# B1: ACA (Amaranthus caudatus) (protein)
# chain: MAGLPVIMCLKSNNNQKYLRYQSDNIQQYGLLQFSADKILDPLAQFEVEPSKTYDGLVHIKSRYTNKYLVRWSPNHYWITASANEPDENKSNWACTLFKPLYVEEGNMKKVRLLHVQLGHYTQNYTVGGSFVSYLFAESSQIDTGSKDVFHVIDWKSIFQFPKRYVTFKGNNGKYLGVITINQLPCLQFGYDNLNDPKVAHEMFVTSNGTICIKSTYMNKFWRLSTDDWILVDGNDPRETNEAAALFRSDVHDFNVISLLNMQKTWFIKRFTSGKPGFINCMNAATQNVDETAILEIIELGSNN
# How the values were obtained:
# Assay in all cases: glycan array binding signal (z-score within array); higher = stronger binding
# Settings in all cases: glycan notation: IUPAC condensed, linker removed
# Fuc(a1-2)Gal = target: Fuc(a1-2)Gal
# Method in brief: (§1)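 Columns mapping to the same glycan were averaged after glycan names were converted to IUPAC-condensed notation. The data come from 3228 arrays in the Consortium for Functional Glycomics database, limited to those with an available protein sequence. Binding is reported as a within-array Z-score averaged across arrays of one protein sequence and across linkers.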
# Fuc(a1-2)Gal(b1-3)GalNAc = target: Fuc(a1-2)Gal(b1-3)GalNAc
# Method in brief: as §1
# [1] = target: Fuc(a1-2)Gal(b1-3)GalNAc(a1-3)[Fuc(a1-2)]Gal(b1-4)Glc
# Method in brief: as §1
# [2] = target: Fuc(a1-2)Gal(b1-3)GalNAc(a1-3)[Fuc(a1-2)]Gal(b1-4)GlcNAc
# Method in brief: as §1
# [3] = target: Fuc(a1-2)Gal(b1-3)GalNAc(b1-3)Gal
# Method in brief: as §1
# [4] = target: Fuc(a1-2)Gal(b1-3)GalNAc(b1-3)Gal(a1-4)Gal(b1-4)Glc
# Method in brief: as §1
# [5] = target: Fuc(a1-2)Gal(b1-3)GalNAc(b1-4)[Neu5Ac(a2-3)]Gal(b1-4)Glc
# Method in brief: as §1
# Fuc(a1-2)Gal(b1-3)GlcNAc = target: Fuc(a1-2)Gal(b1-3)GlcNAc
# Method in brief: as §1
# [6] = target: Fuc(a1-2)Gal(b1-3)GlcNAc(b1-2)Man(a1-3)[Fuc(a1-2)Gal(b1-3)GlcNAc(b1-2)Man(a1-6)]Man(b1-4)GlcNAc(b1-4)GlcNAc
# Method in brief: as §1
# [7] = target: Fuc(a1-2)Gal(b1-3)GlcNAc(b1-2)Man(a1-3)[Fuc(a1-2)Gal(b1-3)GlcNAc(b1-2)Man(a1-6)]Man(b1-4)GlcNAc(b1-4)[Fuc(a1-6)]GlcNAc
# Method in brief: as §1
# [8] = target: Fuc(a1-2)Gal(b1-3)GlcNAc(b1-3)Gal(b1-4)Glc
# Method in brief: as §1
# [9] = target: Fuc(a1-2)Gal(b1-3)GlcNAc(b1-3)GalNAc
# Method in brief: as §1
# [10] = target: Fuc(a1-2)Gal(b1-3)GlcNAc(b1-3)[Fuc(a1-2)Gal(b1-3)GlcNAc(b1-6)]GalNAc
# Method in brief: as §1
# [11] = target: Fuc(a1-2)Gal(b1-3)GlcNAc(b1-3)[Gal(b1-4)GlcNAc(b1-6)]Gal(b1-4)Glc
# Method in brief: as §1
# [12] = target: Fuc(a1-2)Gal(b1-3)GlcNAc(b1-3)[Neu5Ac(a2-6)Gal(b1-4)GlcNAc(b1-6)]Gal(b1-4)Glc
# Method in brief: as §1
# [13] = target: Fuc(a1-2)Gal(b1-3)GlcNAc6S
# Method in brief: as §1
# [14] = target: Fuc(a1-2)Gal(b1-3)[Fuc(a1-4)]GlcNAc
# Method in brief: as §1
# [15] = target: Fuc(a1-2)Gal(b1-3)[Fuc(a1-4)]GlcNAc(b1-2)Man(a1-3)[Fuc(a1-2)Gal(b1-3)[Fuc(a1-4)]GlcNAc(b1-2)Man(a1-3)]Man(b1-4)GlcNAc(b1-4)GlcNAc
# Method in brief: as §1
# [16] = target: Fuc(a1-2)Gal(b1-3)[Fuc(a1-4)]GlcNAc(b1-2)Man(a1-3)[Fuc(a1-2)Gal(b1-3)[Fuc(a1-4)]GlcNAc(b1-2)Man(a1-6)]Man(b1-4)GlcNAc(b1-4)[Fuc(a1-6)]GlcNAc(b1-4)[Fuc(a1-6)]GlcNAc
# Method in brief: as §1
# [17] = target: Fuc(a1-2)Gal(b1-3)[Fuc(a1-4)]GlcNAc(b1-3)[Fuc(a1-3)[Gal(b1-4)]GlcNAc(b1-6)]Gal(b1-4)Glc
# Method in brief: as §1
# [18] = target: Fuc(a1-2)Gal(b1-3)[Fuc(a1-4)]GlcNAc(b1-3)[Gal(b1-4)GlcNAc(b1-6)]Gal(b1-4)Glc
# Method in brief: as §1
# Fuc(a1-2)Gal(b1-4)Glc = target: Fuc(a1-2)Gal(b1-4)Glc
# Method in brief: as §1
# Fuc(a1-2)Gal(b1-4)Glc6S = target: Fuc(a1-2)Gal(b1-4)Glc6S
# Method in brief: as §1
# Fuc(a1-2)Gal(b1-4)GlcNAc = target: Fuc(a1-2)Gal(b1-4)GlcNAc
# Method in brief: as §1
# [19] = target: Fuc(a1-2)Gal(b1-4)GlcNAc(b1-2)Man
# Method in brief: as §1
# [20] = target: Fuc(a1-2)Gal(b1-4)GlcNAc(b1-2)Man(a1-3)[Fuc(a1-2)Gal(b1-4)GlcNAc(b1-2)Man(a1-6)]Man(b1-4)GlcNAc(b1-4)GlcNAc
# Method in brief: as §1
# [21] = target: Fuc(a1-2)Gal(b1-4)GlcNAc(b1-2)Man(a1-3)[Fuc(a1-2)Gal(b1-4)GlcNAc(b1-2)Man(a1-6)]Man(b1-4)GlcNAc(b1-4)[Fuc(a1-6)]GlcNAc
# Method in brief: as §1
# [22] = target: Fuc(a1-2)Gal(b1-4)GlcNAc(b1-2)[Fuc(a1-2)Gal(b1-4)GlcNAc(b1-4)]Man(a1-3)[Fuc(a1-2)Gal(b1-4)GlcNAc(b1-2)Man(a1-6)]Man(b1-4)GlcNAc(b1-4)GlcNAc
# Method in brief: as §1
# [23] = target: Fuc(a1-2)Gal(b1-4)GlcNAc(b1-3)Gal(b1-4)GlcNAc
# Method in brief: as §1
# [24] = target: Fuc(a1-2)Gal(b1-4)GlcNAc(b1-3)Gal(b1-4)GlcNAc(b1-2)Man(a1-3)[Fuc(a1-2)Gal(b1-4)GlcNAc(b1-3)Gal(b1-4)GlcNAc(b1-2)Man(a1-6)]Man(b1-4)GlcNAc(b1-4)GlcNAc
# Method in brief: as §1
# [25] = target: Fuc(a1-2)Gal(b1-4)GlcNAc(b1-3)Gal(b1-4)GlcNAc(b1-3)Gal(b1-4)GlcNAc
# Method in brief: as §1
# [26] = target: Fuc(a1-2)Gal(b1-4)GlcNAc(b1-3)GalNAc
# Method in brief: as §1
# [27] = target: Fuc(a1-2)Gal(b1-4)GlcNAc(b1-3)[Fuc(a1-2)Gal(b1-4)GlcNAc(b1-6)]GalNAc
# Method in brief: as §1
# [28] = target: Fuc(a1-2)Gal(b1-4)GlcNAc(b1-3)[Fuc(a1-3)[Gal(b1-4)]GlcNAc(b1-6)]Gal(b1-4)Glc
# Method in brief: as §1
# [29] = target: Fuc(a1-2)Gal(b1-4)GlcNAc(b1-6)GalNAc
# Method in brief: as §1
# [30] = target: Fuc(a1-2)Gal(b1-4)GlcNAc6S
# Method in brief: as §1
# [31] = target: Fuc(a1-2)Gal(b1-4)[Fuc(a1-3)]GlcNAc
# Method in brief: as §1
# [32] = target: Fuc(a1-2)Gal(b1-4)[Fuc(a1-3)]GlcNAc(b1-2)Man(a1-3)[Fuc(a1-2)Gal(b1-4)[Fuc(a1-3)]GlcNAc(b1-2)Man(a1-6)]Man(b1-4)GlcNAc(b1-4)[Fuc(a1-6)]GlcNAc
# Method in brief: as §1
# [33] = target: Fuc(a1-2)Gal(b1-4)[Fuc(a1-3)]GlcNAc(b1-2)[Fuc(a1-2)Gal(b1-4)[Fuc(a1-3)]GlcNAc(b1-4)]Man(a1-3)[Fuc(a1-2)Gal(b1-4)[Fuc(a1-3)]GlcNAc(b1-2)Man(a1-6)]Man(b1-4)GlcNAc(b1-4)GlcNAc
# Method in brief: as §1
# [34] = target: Fuc(a1-2)Gal(b1-4)[Fuc(a1-3)]GlcNAc(b1-3)Gal(b1-4)[Fuc(a1-3)]GlcNAc
# Method in brief: as §1
# [35] = target: Fuc(a1-2)Gal(b1-4)[Fuc(a1-3)]GlcNAc(b1-3)Gal(b1-4)[Fuc(a1-3)]GlcNAc(b1-3)Gal(b1-4)[Fuc(a1-3)]GlcNAc
# Method in brief: as §1
# [36] = target: Fuc(a1-2)Gal(b1-4)[Fuc(a1-3)]GlcNAc(b1-3)GalNAc
# Method in brief: as §1
# [37] = target: Fuc(a1-2)Gal(b1-4)[Fuc(a1-3)]GlcNAc(b1-3)[Neu5Ac(a2-6)Gal(b1-4)GlcNAc(b1-6)]Gal(b1-4)Glc
# Method in brief: as §1
# [38] = target: Fuc(a1-2)Gal3S(b1-4)GlcNAc
# Method in brief: as §1
# [39] = target: Fuc(a1-2)Gal6S(b1-3)GlcNAc
# Method in brief: as §1
binder,measurement,setting,value
B1,glycan array binding signal (z-score),Fuc(a1-2)Gal,0.02
same,glycan array binding signal (z-score),Fuc(a1-2)Gal(b1-3)GalNAc,-0.388
same,glycan array binding signal (z-score),[1],-0.48
same,glycan array binding signal (z-score),[2],-0.623
same,glycan array binding signal (z-score),[3],-0.347
same,glycan array binding signal (z-score),[4],-0.228
same,glycan array binding signal (z-score),[5],-0.071
same,glycan array binding signal (z-score),Fuc(a1-2)Gal(b1-3)GlcNAc,-0.378
same,glycan array binding signal (z-score),[6],0.619
same,glycan array binding signal (z-score),[7],-0.082
same,glycan array binding signal (z-score),[8],-0.448
same,glycan array binding signal (z-score),[9],-0.325
same,glycan array binding signal (z-score),[10],1.01
same,glycan array binding signal (z-score),[11],-0.167
same,glycan array binding signal (z-score),[12],-0.274
same,glycan array binding signal (z-score),[13],-0.038
same,glycan array binding signal (z-score),[14],-0.296
same,glycan array binding signal (z-score),[15],0.186
same,glycan array binding signal (z-score),[16],0.076
same,glycan array binding signal (z-score),[17],-0.363
same,glycan array binding signal (z-score),[18],-0.302
same,glycan array binding signal (z-score),Fuc(a1-2)Gal(b1-4)Glc,-0.08
same,glycan array binding signal (z-score),Fuc(a1-2)Gal(b1-4)Glc6S,0.198
same,glycan array binding signal (z-score),Fuc(a1-2)Gal(b1-4)GlcNAc,-0.106
same,glycan array binding signal (z-score),[19],0.126
same,glycan array binding signal (z-score),[20],0.993
same,glycan array binding signal (z-score),[21],-0.813
same,glycan array binding signal (z-score),[22],0.579
same,glycan array binding signal (z-score),[23],-0.247
same,glycan array binding signal (z-score),[24],0.297
same,glycan array binding signal (z-score),[25],-0.044
same,glycan array binding signal (z-score),[26],-0.181
same,glycan array binding signal (z-score),[27],0.141
same,glycan array binding signal (z-score),[28],-0.303
same,glycan array binding signal (z-score),[29],0.319
same,glycan array binding signal (z-score),[30],-0.216
same,glycan array binding signal (z-score),[31],-0.061
same,glycan array binding signal (z-score),[32],0.071
same,glycan array binding signal (z-score),[33],0.91
same,glycan array binding signal (z-score),[34],-0.483
same,glycan array binding signal (z-score),[35],0.327
same,glycan array binding signal (z-score),[36],0.188
same,glycan array binding signal (z-score),[37],-0.408
same,glycan array binding signal (z-score),[38],-0.222
same,glycan array binding signal (z-score),[39],-0.197
